Assay results from the RNAGym collection of RNA variant scans (doi:10.1073/pnas.2313332121).
Variants at the background level are over-represented here.

B1: TPR 5TU (parent)
chain: GGAUCUUCUCGAUCUAACAAAAAAGACAAAUCUGCCACAAAGCUUGAGAGCAUCUUCGGAUGCAGAGGCGGCAGCCUUCGGUGGCGCGAUAGCGCCAACGUUCUCAACUAUGACACGCAAAACGCGUGCUCCGUUGAAUGGAGUUUAUCAUG

Variants of: B1
Assay: polymerase ribozyme fitness, log enrichment relative to wild type (log ratio); higher = more active; in vitro selection for triplet polymerase activity
In short: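 Both subunits of a heterodimeric triplet polymerase ribozyme were given their own mutant library, built by PCR and transcribed. Each library was annealed with a biotinylated primer, the partner subunit and triplets, incubated frozen at −7 °C, and its extended constructs gel-excised, captured on streptavidin beads and amplified by RT-PCR, all in one round done in triplicate. Fitness is the logarithm of genotype enrichment relative to wild-type enrichment, with replicates averaged by inverse-variance weighting. That logarithm is base 2, and Illumina-sequenced genotypes needed ≥10 input reads and ≥1 read per output.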

Row | Variant | polymerase ribozyme fitness (log ratio)
1 | A12G C14G A17G A21C G34C C75A C96A A115U U144A | ≤ -4.2
2 | A12G A30C U45A C51G G74C U78G C87A G143A U148A | ≤ -4.2
3 | G11C C85U A119G | -2.02
4 | A12C G50A G59C G92U | -2.67
5 | A12G A60U G92A U127A A142U | ≤ -4.2
6 | G11C A19G A23U G42C U44A G48A G88A C93A | ≤ -4.2
7 | G11C A23C G58A G81C C87A A138U | ≤ -4.2
8 | A12G A89G | -1.16
9 | G11C A41C C95A U146G | -3.34
10 | G11U U104G | -1.58
11 | A12C A20C A26G C35U A40C U55C A73U C93G G94C | ≤ -4.2
12 | A12G C32G C72A G92U A113C G141C A147G | ≤ -4.2
13 | G11U A30U C35U C69U G83A A91C A98U | ≤ -4.2
14 | A12G A16U A24U C38U G58C C69G C125U A150U | ≤ -4.2
15 | A12C U44A G50C U53A C87A A106G A107U | ≤ -4.2
16 | G11U A20G A49G A52C C57A C79A C103G | ≤ -4.2
17 | G11U C14G A26G U33G C57A C99G A120G | ≤ -4.2
18 | A12C C85G A89G C96U G100A | ≤ -4.2
19 | G11U C54A C87G A98G | ≤ -4.2
20 | G11U A29C U56A G81A G94U U104G A121C A137G U151A | ≤ -4.2
21 | A12G A22U U56A A66U C79A C85U G92C | ≤ -4.2

Row | Variant | polymerase ribozyme fitness (log ratio)
22 | G11U C32U G50C G86C | ≤ -4.2
23 | A12C U78C C85A C114A G133A G136U | ≤ -4.2
24 | G11U C32U G50A G80A C103A | ≤ -4.2
25 | G11U A19U A39G C75U G94C A142C | ≤ -4.2
26 | G11C C43U C69U A91C A137C | ≤ -4.2
27 | A12C C57U C76U C93U C125G A138U | ≤ -4.2
28 | A12C A19G G58U U61A | ≤ -4.2
29 | G11C A30U C95A C108G U148A | ≤ -4.2
30 | A12C A29U A39C G71A U148C | ≤ -4.2
31 | A12C A20C A26G | ≤ -4.2
32 | A12C U90G A107G A138G | ≤ -4.2
33 | A12C C38G A64C | ≤ -4.2
34 | A12C C51A U53A G70C U90G G141U | ≤ -4.2
35 | G11C A17U C43A G50A C51G G67A C87G | ≤ -4.2
36 | G11C C14A C93G A98U C99G A110C | ≤ -4.2
37 | A12G A28C C79U U82C G86U G88A A106U C129U U148G G152U | ≤ -4.2
38 | A12G A23C G59C C75G A110U | ≤ -4.2
39 | A12G A29G C95U U104A G141A | ≤ -4.2
40 | A12C A29U A52G C85A U135G | ≤ -4.2
41 | A12C C18G A24C C43A C76U A142G | ≤ -4.2
42 | G11C U45A C79G C96G C149G | ≤ -4.2

Row | Variant | polymerase ribozyme fitness (log ratio)
43 | A12C A49U U82C C87A | ≤ -4.2
44 | A12C C54U C57U A89U A97G U102C A120C | ≤ -4.2
45 | G11C A17G C32A C72U A113U G117U A122U U148G | ≤ -4.2
46 | G11C A41U A49C G83C A150C | ≤ -4.2
47 | G11C U77C A91U A106G A115G | ≤ -4.2
48 | G11C A41G C76U C93G A106G A122G C129A G141U | ≤ -4.2
49 | A12G A40G U44A U45A C93G C118U U139A U146A | ≤ -4.2
50 | A12G C27A G94U C125G U146G | ≤ -4.2
51 | G11U A12G A40C G83U A89G A119G G140U | ≤ -4.2
52 | G11U A22C G25A G50C C54U C96U A106G U130G A137G | ≤ -4.2
53 | A12C A28G U33A U55A A89U C95U C105A | ≤ -4.2
54 | G11C C36G C85G A115G | ≤ -4.2
55 | G11U A20U G50A A60C G67C G92C G143C U151A | ≤ -4.2
56 | G11U A26U G42C G84A A89G G92A C131A U148A | ≤ -4.2
57 | G11C A19C G46A G68A G88A C95U C99G C108U | ≤ -4.2
58 | A12C C14U G59A G83A A89U G100A G117A U145G | ≤ -4.2
59 | A12G A20U C32G G83U C87U A150C | ≤ -4.2
60 | G11U A20C A107C | ≤ -4.2
61 | A12C A41C A49C | ≤ -4.2
62 | A12C C14A A19U C35A C87G C95G U104G | ≤ -4.2
63 | G11U A17G G25U C32A G71C C87G A89G | ≤ -4.2

Row | Variant | polymerase ribozyme fitness (log ratio)
64 | G11U G42C G68A C85U G128U C132G U139G U148A | ≤ -4.2
65 | G11U G84A U90C A119G C125A | ≤ -4.2
66 | A12C A22G C32U G46C A52G | ≤ -4.2
67 | G11U U44A U56A C99U G124U | ≤ -4.2
68 | G11C C27U G92U | -2.73
69 | G11U A23U C32U C57U G58A U77C C93G C96U A97U G100U A110U G143C | ≤ -4.2
70 | G11C A20U U31A C35G C54U C85A A89C C95G | ≤ -4.2
71 | G11C C43A C85A U146A | ≤ -4.2
72 | A12G C32G C35G U55A C85U | ≤ -4.2
73 | A12G A26G A52U A91G G141C | ≤ -4.2
74 | A12C C57A G88U | ≤ -4.2
75 | G11U G86A C87A C103A G126A | ≤ -4.2
76 | G11C C57A A66U C87U C105G U148G | ≤ -4.2
77 | A12G A28U G48C G84C | ≤ -4.2
78 | A12C A41G C87A A121G C123U G140A U146C C149G | ≤ -4.2
79 | G11C A26G A91C G92A G152C | ≤ -4.2
80 | A12C C27G G88C C118G | ≤ -4.2
81 | A12C A52G G74C C75A U127G | ≤ -4.2
82 | G11C C43U C79G G84A C116A U145A | ≤ -4.2
83 | A12G A19G A30U C43U C54G C85G C129G G143A | ≤ -4.2
